Test results reported in the supplement of paper PMC4604168 (melanoma cell lines).
Some of the results follow. Most values come without repeats; read them as rough.

Test system: UACC257
Experiment: cell count relative to DMSO control; melanoma cells; higher = more viable cells
Conditions: library dose: standard library concentration; 72 h; first compound 2 µM
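Further: cells treated in 1,536-well plates, then fixed and DAPI-stained, with nuclei counted from automated high-throughput microscope images.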

SMILES	cell count
C[C@@H](N)c1ccc(C(=O)Nc2ccnc3[nH]ccc23)cc1 + CCCCCCCCc1ccc(CCC(N)(CO)CO)cc1 [fingolimod] (partner dose 10 µM)	24.4%
Cn1sc(=O)n(Cc2ccccc2)c1=O + C[C@]1(O)C[C@@H](c2nc(-c3ccc4ccc(-c5ccccc5)nc4c3)c3c(N)nccn32)C1 [OSI906] (partner dose 2 µM)	103%
Cn1sc(=O)n(Cc2ccccc2)c1=O + NC(=O)c1ccc(N(C(N)=O)c2c(F)cccc2F)nc1-c1ccc(F)cc1F [VX702] (partner dose 2 µM)	103%
C[C@@H](N)c1ccc(C(=O)Nc2ccnc3[nH]ccc23)cc1 + Cn1cnc2c(F)c(Nc3ccc(Br)cc3Cl)c(C(=O)NOCCO)cc21 [selumetinib] (partner dose 0.075 µM)	47.4%
CCCCCCCCCCCCCCCCCCOP(=O)([O-])OC1CC[N+](C)(C)CC1 [Perifosine] + CC(C)C[C@H](NC(=O)[C@H](Cc1ccccc1)NC(=O)c1cnccn1)B(O)O [Bortezomib] (partner dose 0.005 µM)	79.3%
C[C@@H](N)c1ccc(C(=O)Nc2ccnc3[nH]ccc23)cc1 + CNC(=O)c1cc(Oc2ccc(NC(=O)Nc3ccc(Cl)c(C(F)(F)F)c3)cc2)ccn1 [sorafenib] (partner dose 2 µM)	55.8%
CCCCCCCCCCCCCCCCCCOP(=O)([O-])OC1CC[N+](C)(C)CC1 [Perifosine] + C[C@]1(O)C[C@@H](c2nc(-c3ccc4ccc(-c5ccccc5)nc4c3)c3c(N)nccn32)C1 [OSI906] (partner dose 2 µM)	81%
CCCCCCCCCCCCCCCCCCOP(=O)([O-])OC1CC[N+](C)(C)CC1 [Perifosine] + NC1(c2ccc(-c3nc4ccn5c(=O)[nH]nc5c4cc3-c3ccccc3)cc2)CCC1 [MK2206] (partner dose 2 µM)	89.5%
CCCCCCCCCCCCCCCCCCOP(=O)([O-])OC1CC[N+](C)(C)CC1 [Perifosine] + O=c1[nH]nc(Sc2ncc([N+](=O)[O-])s2)n1-c1ccc2c(c1)OCCO2 [BI78D3] (partner dose 1 µM)	99.8%
C[C@@H](N)c1ccc(C(=O)Nc2ccnc3[nH]ccc23)cc1 + NC1(c2ccc(-c3nc4ccn5c(=O)[nH]nc5c4cc3-c3ccccc3)cc2)CCC1 [MK2206] (partner dose 2 µM)	52.2%
CCCCCCCCCCCCCCCCCCOP(=O)([O-])OC1CC[N+](C)(C)CC1 [Perifosine] + Cc1cn(-c2cc(NC(=O)c3ccc(C)c(Nc4nccc(-c5cccnc5)n4)c3)cc(C(F)(F)F)c2)cn1 [nilotinib] (partner dose 1 µM)	124%
Cn1sc(=O)n(Cc2ccccc2)c1=O + CN(c1ncccc1CNc1nc(Nc2ccc3c(c2)CC(=O)N3)ncc1C(F)(F)F)S(C)(=O)=O [PF562271] (partner dose 0.4 µM)	104%
C[C@@H](N)c1ccc(C(=O)Nc2ccnc3[nH]ccc23)cc1 + C=C(c1ccc(C(=O)O)cc1)c1cc2c(cc1C)C(C)(C)CCC2(C)C [Bexarotene] (partner dose 10 µM)	31.5%
CCCCCCCCCCCCCCCCCCOP(=O)([O-])OC1CC[N+](C)(C)CC1 [Perifosine] + Cc1cc(Nc2cc(N3CCN(C)CC3)nc(/C=C/c3ccccc3)n2)n[nH]1 [ENMD2076] (partner dose 0.2 µM)	90.4%
C[C@@H](N)c1ccc(C(=O)Nc2ccnc3[nH]ccc23)cc1 + CN(NC(=O)CC(=O)NN(C)C(=S)c1ccccc1)C(=S)c1ccccc1 [STA4783] (partner dose 0.03 µM)	79.7%
Cn1sc(=O)n(Cc2ccccc2)c1=O + COc1cc(Nc2ncc(F)c(Nc3ccc4c(n3)NC(=O)C(C)(C)O4)n2)cc(OC)c1OC [Tamatinib] (partner dose 2 µM)	89.5%
CCCCCCCCCCCCCCCCCCOP(=O)([O-])OC1CC[N+](C)(C)CC1 [Perifosine] + OCc1c[nH]c2ccccc12 [Indole-3-carbinol] (partner dose 4 µM)	104%
C[C@@H](N)c1ccc(C(=O)Nc2ccnc3[nH]ccc23)cc1 + CS(=O)(=O)CCNCc1ccc(-c2ccc3ncnc(Nc4ccc(OCc5cccc(F)c5)c(Cl)c4)c3c2)o1 [lapatinib] (partner dose 4 µM)	82.8%
Cn1sc(=O)n(Cc2ccccc2)c1=O + O=C(O)c1ccc(-c2c[nH]c3ncc(-c4ccccc4)cc23)cc1C1CCCC1 [GSK650394] (partner dose 0.8 µM)	72.5%
Cn1sc(=O)n(Cc2ccccc2)c1=O + Cn1nnc2c(C(N)=O)ncn2c1=O [temozolomide] (partner dose 10 µM)	102%
